Test results published in the supplement of paper PMC5499739.
The full ranking holds about 16,000 sequences; the median of “Z-score” is about -0.37, and the highest 2% start at about 3.1. Some of the results follow.

Each sequence was assayed on RBM10 RRM1-ZnF-RRM2 (GST-tagged construct) (assay: RNAcompete 7-mer binding Z-score; higher = stronger binding preference).
Method: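 RNAcompete: 20 pmol GST-tagged RBM10 RNA-binding constructs were incubated with a designed RNA pool of about 241,000 sequences up to 41 nt (1.5 nmol) on glutathione beads for 30 min at 4 °C and washed. Bound RNAs were identified by microarray hybridisation. Each RNA 7-mer is scored by a one-sided Z-score of its enrichment, computed over probes that contain the 7-mer within longer pool sequences.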

Sequence | RNAcompete 7-mer binding Z-score
ACUCUCA | -0.832
UUUCGCC | -0.945
AAUGGUU | 2.34
UCUCCAG | -0.697
UCAGAAG | 0.286
GACCUAC | -0.905
AUGCCGU | -0.639
AGCGAGG | 3.06
UGGCCCG | -0.253
CAAUUUU | -1.01
AUGAGAC | -0.147
ACAACCA | -0.304
GUCUAUU | -0.595
CUUUGGC | -0.879
GGGAGAU | 2.35
UAAGUAG | 0.683
GUUUGAA | -0.431
CGCUGCG | -0.227
AAGUCCG | -0.632
UAUUUAG | -0.26
UCCUUGC | -0.77
AUAUUCG | -0.417
CUCGUAA | -0.726
UGCUUGC | -0.73
UUGGUGU | 0.909

Sequence | RNAcompete 7-mer binding Z-score
UGCGUAC | -0.067
UGACUGC | -0.602
ACCGAAG | -0.439
CCGCAGC | -0.621
CUAACUU | -0.89
CUUCUUG | -0.905
GAAGUUU | -0.147
GUCUGGC | -0.366
UUCGCCC | -0.883
GAUUCAU | -0.446
GUGCAAU | 0.399
GUCUGUG | -0.125
UCAGUAG | 0.661
GCGUGCA | 0.213
UGUCGUC | -0.373
ACCUUCU | -0.981
UAGAGAC | 0.192
ACUCCCU | -0.868
ACGAGGC | 0.742
UUUGUAG | -0.369
ACCAUCA | -0.577
CGUACGA | -0.395
UGGGCAA | 2.37
CACGGCU | -0.468
AUGAACU | -0.282

Sequence | RNAcompete 7-mer binding Z-score
UUUGCAG | -0.362
GGAACCG | 1.24
UCCAUAA | -0.741
UAGACAC | -0.154
AAUAUUU | -0.77
UUUCCAU | -0.551
AGUCGAU | -0.0707
GGACCUC | -0.0816
AGCCGGG | 0.905
CACAACG | -0.395
GGCUUUG | -0.191
CGACAUG | 0.37
CCUACAG | -0.752
CAGCAGC | -0.246
GGGAAAU | 2.87
CUUCGCU | -0.905
ACUGGCC | -0.621
CGCUCCC | -0.533
CCCCGCG | -0.504
GCGACAA | 0.21
UCGCAAC | -0.686
GAAGACA | 0.352
GACUUUU | -0.697
AACCGUG | -0.00148
CCCUUAU | -0.814

Sequence | RNAcompete 7-mer binding Z-score
AGAAAUC | -0.511
AGUGUUC | -0.559
AGUCCUG | -0.497
GCAUCGU | -0.282
AUUAAGG | 1.26
UGUAGGG | 3.34
UGUUGUC | -0.752
GAAUAUG | 0.749
CAGAGUC | -0.165
AACUCCU | -0.821
GCAAGGU | 2.17
AGUAAUC | -0.3
AGGACCA | 0.0349
UUUACCU | -0.821
GACGCGA | -0.235
GUUUUCA | -0.333
UUUACCC | -0.897
GACCGCG | -0.533
GAACGCA | -0.147
CGACAUU | -0.431
GUUAAUA | -0.249
AUGUUCG | -0.446
UAGAGCC | -0.388
GCCUGCG | -0.5
CGAUGCC | -0.544

Sequence | RNAcompete 7-mer binding Z-score
UACGAAA | -0.151
GAACAGC | 0.0204
CGCCAGC | -0.439
CCAGGGG | 1.43
UCGCUUA | -0.763
AGGCACG | 0.202
CCCUGAU | -0.744
GCCGACU | -0.887
CUGCCGG | -0.202
GCGAUAA | 0.374
GUGAAUG | 1.1
CUGCGGC | -0.107
UGUGUGC | -0.118
CCACGUC | -0.57
ACAUGGA | 1.76
CGGAGGG | 2.92
AGAACUC | -0.785
AUCGGUA | 0.581
CGCUCCA | -0.653
CCGGAUU | -0.435
CGGGCAG | 1.99
UCGCGAU | -0.726
GUUAUUG | 0.195
UGACCGC | -0.544
CUACCGG | -0.57

Sequence | RNAcompete 7-mer binding Z-score
AAAGAUA | 0.0277
ACACUGC | -0.737
ACACGGG | 1.91
GUAGGGC | 2.85
GUGUCAA | 0.0604
CGGGUCA | 1.51
CCUAAUU | -0.828
CCGGGGC | 0.942
GUUGAGA | 0.64
UUCCUUC | -0.763
GUCACGG | 0.599
GAUCCUG | -0.85
UUCUUCU | -0.788
AAGACUA | -0.198
CCUAGGG | 0.869
AUUCAUG | -0.307
GAAGCAA | 0.341
AUAGCAU | -0.366
UAAGGUA | 1.39
AGCUGGC | 0.0604
CUCUACA | -0.843
CGAGUAA | 0.505
CUUGCUU | -0.948
CCGGGGA | 1.12
AUAAGAA | 0.177

Sequence | RNAcompete 7-mer binding Z-score
GCUGGAU | 0.548
GAUACCG | -0.311
AGGGCCC | -0.238
AUGAUCA | -0.326
AUGCCUU | -0.872
GUUCCGG | 0.283
CCCUAAC | -0.781
CUGUGUU | -0.89
ACAUUGU | -0.428
CAAACCG | -0.384
UAUGUUG | -0.449
CCACAAU | -0.759
AAUUGCC | -0.755
GCCCCUA | -0.708
UCUAGCG | -0.624
GCCAGUU | -0.752
CCCGCAG | -0.511
UGCACUU | -0.744
GGGUGAG | 4.12
CAUGAUA | -0.122
CGACCUA | -0.817
UUUAAUC | -0.737
ACCGGUG | 0.607
CCGCUAG | -0.588
CGUUUAA | -0.759

Sequence | RNAcompete 7-mer binding Z-score
AAGGGUU | 3.94
CUCCGGU | -0.584
GUGCUGC | -0.227
UCUGAAA | -0.562
AUCUCUA | -0.814
GUAAUGU | 0.545
UUAGGAU | 0.996
CACCCCU | -0.562
ACAAAGA | -0.18
CAGAGAG | 0.938
AUACAAU | -0.275
CGCUCGG | -0.158
UGUGGCG | 1.34
UCCCUUC | -0.737
CUCAGAU | -0.632
UAAACUC | -0.73
CUAGGGA | 1.6
AGGAUAA | 1.21
UCAGCCU | -0.843
GGUCGCG | 0.687
GUUAUCU | -0.395
AGUCCUU | -0.806
UGCUGUU | -0.777
CGCACUA | -0.65
CCGAUAC | -0.533

Sequence | RNAcompete 7-mer binding Z-score
UGCAGCG | 0.53
CGCAAAA | -0.391
CAUAAUC | -0.715
CCAGGCC | -0.679
GGGGUUA | 3.07
CGUGUCC | -0.704
UAGGGUC | 2.16
CUGUGGA | 0.701
UCGGGAA | 1.4
CCGCAAC | -0.617
UCGCUAA | -0.573
CAUGGGG | 2.51
UCCCGGA | -0.38
GAAAUCC | -0.61
GAAUUCU | -0.493
GGGUACG | 2.9
ACCAGAG | 0.355
GGACCCU | -0.46
CCCGAUC | -0.73
AGGAUCC | -0.238
UAGCAGA | 0.348
ACGGGAA | 2.76
AACAGGA | 2.03
CGCCUAA | -0.908
GCGGCGU | 1.18

Sequence | RNAcompete 7-mer binding Z-score
ACCCGUU | -0.916
CUCCCUA | -0.701
UAGCUUA | -0.526
UAUUGGA | 0.523
CCGUGAA | -0.635
CGGUAAC | 0.232
AACAAUA | 0.13
GUCAAUU | -0.602
CGGGGUC | 1.9
AUGGGCC | 1.33
AGCAUUU | -0.726
GUUCACA | -0.519
CGCACCC | -0.748
UCACCUG | -0.755
GGGCGGG | 3.52
ACACUAG | -0.169
GGUGAGA | 2.68
UUCCUUU | -0.781
UCAUCGG | -0.103
CGUACCC | -0.551
UCCGUGU | -0.588
UUGCUAG | -0.333
GAACUUU | -0.632
CCAUCAU | -0.817
GCGAAUC | -0.26

Sequence | RNAcompete 7-mer binding Z-score
AAUGUAC | 0.0313
UACGACU | -0.657
GUUCGGG | 1.51
GAGCCCC | -0.581
UUACAAU | -0.409
UGUCCAU | -0.675
CACGUUA | -0.406
CGAGUUU | -0.562
CAAAACC | -0.533
AUUGCAA | -0.318
CAGGCUU | -0.497
UUAGAGA | 0.319
GAUCUGG | 0.246
GCGCGUC | -0.238
AGGUACU | 0.0823
UUGCAAA | -0.428
AAGCUCA | -0.635
GCAAGAC | -0.129
UGCUCUG | -0.901
UGCCGCC | -0.694
UCCGCUC | -0.599
AUUUGUC | -0.744
AGGAAGA | 1.64
CUAAUCA | -0.592
UUGCCGA | -0.672

Sequence | RNAcompete 7-mer binding Z-score
CGGGGGA | 2.53
UAAAAGG | 1.38
AUCGCAU | -0.522
CUGUAUC | -0.697
UAUUGCU | -0.777
UCAGGCA | 0.636
CCUGAUC | -0.927
GCCCAUG | -0.639
CUUCUGC | -0.959
AUACUUA | -0.551
UCACAAG | -0.256
UUACACA | -0.544
UAGAUAU | -0.154
UUAUACG | -0.53
UUAUCGG | -0.0889
CCUCCUU | -0.916
GUUUCUU | -0.551
ACAAUAA | -0.114
AAAGGAG | 3.75
AGCGUGG | 2.39
GGAUUUC | -0.0161
AGGAGUC | 0.836
AGCGCUG | -0.0889
ACAGUCC | -0.741
UUUAUCA | -0.821

Sequence | RNAcompete 7-mer binding Z-score
CUCAGGC | -0.424
CAACCGC | -0.741
UUUAGUU | -0.497
GAAUGUC | -0.395
UCCAGUU | -0.577
ACGAUUU | -0.661
UUAGAUA | -0.377
UGACGGA | 1.01
AUUUUGU | -0.657
GGGUUUC | 1.59
CAACCGG | -0.176
GUUUCCC | -0.592
UUCGCGA | -0.65
UUCCCGG | -0.613
CGGAUAA | 0.862
AUCCGCA | -0.799
CGUGUAA | 0.0058
AGGCGAA | 1.21
UAAACGU | -0.439
UUGUCUG | -0.737
GGACGUG | 1.98
CUCGUGG | 0.0495
GUGUAGC | 0.359
AGUACUG | 0.00216
CUGUAAC | -0.704

Sequence | RNAcompete 7-mer binding Z-score
UUAACCG | -0.65
UUGGAAC | 0.603
GCAUCUA | -0.606
GGAUACC | 0.574
AAUCAUG | -0.0525
GAACAAU | 0.319
AAAACCA | -0.307
UAUAGGA | 1.12
UUAAUCG | -0.577
GAGUGCA | 0.676
GGAGCGC | 1.24
AAACGUG | 0.428
CUAACGA | -0.566
UAAGUCG | -0.242
AUUAAGU | -0.107
UACGACC | -0.752
AGGAGUU | 1.52
GUACAGG | 2.73
GGCAUCU | -0.333
AAGUCUG | -0.522
GUAACCG | 0.199
GGCACCG | 0.246
GAGCGGC | 1.42
GAGUCUC | -0.267
UAGCGCA | -0.446

Sequence | RNAcompete 7-mer binding Z-score
GCUCACC | -0.785
CUAGUGC | -0.486
CGGCCGG | -0.114
AUUGAGC | -0.078
AGCCUUG | -0.89
AAGCCGG | 0.0349
AGAUGGA | 2.92
UUCCCAU | -0.792
GUCAUUC | -0.635
UAGCGUG | 0.173
GAUCGUA | -0.227
CAAUUGC | -0.566
CCUCGCA | -0.694
UACUCAU | -0.766
AAUCGCU | -0.825
GUUUAGC | -0.409
UCGGGCA | 0.752
